The other results are listed elsewhere or left out.
What was measured:
Assay in all cases: glycan array binding signal (z-score within array); higher = stronger binding
Details in all cases: glycan notation: IUPAC condensed, linker removed
[1] = molecular target: Fuc(a1-2)Gal
Method in brief: (§1)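 The Consortium for Functional Glycomics database supplied 3228 glycan arrays, of which those lacking an available protein sequence were dropped. The binding signal, a within-array Z-score, was averaged across arrays of the same protein sequence and across linkers. Negative scores can be read as non-binding.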

[2] = molecular target: Fuc(a1-2)Gal(b1-3)GalNAc
Method in brief: as §1

[3] = molecular target: Fuc(a1-2)Gal(b1-3)GalNAc(a1-3)[Fuc(a1-2)]Gal(b1-4)Glc
Method in brief: as §1

[4] = molecular target: Fuc(a1-2)Gal(b1-3)GalNAc(a1-3)[Fuc(a1-2)]Gal(b1-4)GlcNAc
Method in brief: as §1

[5] = molecular target: Fuc(a1-2)Gal(b1-3)GalNAc(b1-3)Gal
Method in brief: as §1

[6] = molecular target: Fuc(a1-2)Gal(b1-3)GalNAc(b1-3)Gal(a1-4)Gal(b1-4)Glc
Method in brief: as §1

[7] = molecular target: Fuc(a1-2)Gal(b1-3)GalNAc(b1-4)[Neu5Ac(a2-3)]Gal(b1-4)Glc
Method in brief: as §1

[8] = molecular target: Fuc(a1-2)Gal(b1-3)GlcNAc
Method in brief: as §1

[9] = molecular target: Fuc(a1-2)Gal(b1-3)GlcNAc(b1-2)Man(a1-3)[Fuc(a1-2)Gal(b1-3)GlcNAc(b1-2)Man(a1-6)]Man(b1-4)GlcNAc(b1-4)GlcNAc
Method in brief: as §1

[10] = molecular target: Fuc(a1-2)Gal(b1-3)GlcNAc(b1-2)Man(a1-3)[Fuc(a1-2)Gal(b1-3)GlcNAc(b1-2)Man(a1-6)]Man(b1-4)GlcNAc(b1-4)[Fuc(a1-6)]GlcNAc
Method in brief: as §1

[11] = molecular target: Fuc(a1-2)Gal(b1-3)GlcNAc(b1-3)Gal(b1-4)Glc
Method in brief: as §1

[12] = molecular target: Fuc(a1-2)Gal(b1-3)GlcNAc(b1-3)GalNAc
Method in brief: as §1

[13] = molecular target: Fuc(a1-2)Gal(b1-3)GlcNAc(b1-3)[Fuc(a1-2)Gal(b1-3)GlcNAc(b1-6)]GalNAc
Method in brief: as §1

[14] = molecular target: Fuc(a1-2)Gal(b1-3)GlcNAc(b1-3)[Gal(b1-4)GlcNAc(b1-6)]Gal(b1-4)Glc
Method in brief: as §1

[15] = molecular target: Fuc(a1-2)Gal(b1-3)GlcNAc(b1-3)[Neu5Ac(a2-6)Gal(b1-4)GlcNAc(b1-6)]Gal(b1-4)Glc
Method in brief: as §1

[16] = molecular target: Fuc(a1-2)Gal(b1-3)GlcNAc6S
Method in brief: as §1

[17] = molecular target: Fuc(a1-2)Gal(b1-3)[Fuc(a1-4)]GlcNAc
Method in brief: as §1

[18] = molecular target: Fuc(a1-2)Gal(b1-3)[Fuc(a1-4)]GlcNAc(b1-2)Man(a1-3)[Fuc(a1-2)Gal(b1-3)[Fuc(a1-4)]GlcNAc(b1-2)Man(a1-3)]Man(b1-4)GlcNAc(b1-4)GlcNAc
Method in brief: as §1

[19] = molecular target: Fuc(a1-2)Gal(b1-3)[Fuc(a1-4)]GlcNAc(b1-2)Man(a1-3)[Fuc(a1-2)Gal(b1-3)[Fuc(a1-4)]GlcNAc(b1-2)Man(a1-6)]Man(b1-4)GlcNAc(b1-4)[Fuc(a1-6)]GlcNAc(b1-4)[Fuc(a1-6)]GlcNAc
Method in brief: as §1

[20] = molecular target: Fuc(a1-2)Gal(b1-3)[Fuc(a1-4)]GlcNAc(b1-3)[Fuc(a1-3)[Gal(b1-4)]GlcNAc(b1-6)]Gal(b1-4)Glc
Method in brief: as §1

[21] = molecular target: Fuc(a1-2)Gal(b1-3)[Fuc(a1-4)]GlcNAc(b1-3)[Gal(b1-4)GlcNAc(b1-6)]Gal(b1-4)Glc
Method in brief: as §1

[22] = molecular target: Fuc(a1-2)Gal(b1-4)Fuc(a1-3)]GlcNAc(b1-2)Man(a1-3)[Fuc(a1-2)Gal(b1-4)[Fuc(a1-3)]GlcNAc(b1-2)Man(a1-6)]Man(b1-4)GlcNAc(b1-4)GlcNAc
Method in brief: as §1

[23] = molecular target: Fuc(a1-2)Gal(b1-4)Glc
Method in brief: as §1

[24] = molecular target: Fuc(a1-2)Gal(b1-4)Glc6S
Method in brief: as §1

[25] = molecular target: Fuc(a1-2)Gal(b1-4)GlcNAc
Method in brief: as §1

[26] = molecular target: Fuc(a1-2)Gal(b1-4)GlcNAc(b1-2)Man
Method in brief: as §1

[27] = molecular target: Fuc(a1-2)Gal(b1-4)GlcNAc(b1-2)Man(a1-3)[Fuc(a1-2)Gal(b1-4)GlcNAc(b1-2)Man(a1-6)]Man(b1-4)GlcNAc(b1-4)GlcNAc
Method in brief: as §1

[28] = molecular target: Fuc(a1-2)Gal(b1-4)GlcNAc(b1-2)Man(a1-3)[Fuc(a1-2)Gal(b1-4)GlcNAc(b1-2)Man(a1-6)]Man(b1-4)GlcNAc(b1-4)[Fuc(a1-6)]GlcNAc
Method in brief: as §1

[29] = molecular target: Fuc(a1-2)Gal(b1-4)GlcNAc(b1-2)[Fuc(a1-2)Gal(b1-4)GlcNAc(b1-4)]Man(a1-3)[Fuc(a1-2)Gal(b1-4)GlcNAc(b1-2)Man(a1-6)]Man(b1-4)GlcNAc(b1-4)GlcNAc
Method in brief: as §1

[30] = molecular target: Fuc(a1-2)Gal(b1-4)GlcNAc(b1-3)Gal(b1-4)GlcNAc
Method in brief: as §1

B1: CvGal2 (Crassostrea virginica) (protein)
chain: MGSSHHHHHHSSGLVPRGSHMRIREAGKRKDTTKVYQIPDGLFPGQQVMLRGRVPWGSKSFSINFSATPRMGEGDILFHLNPRPSEGVCIRNALLNGSWGAEEKWQPYFPFDDGRSFSVKIEVTNDAFRTFVNGRPFVDFLHRTDFRAGKYLTLREGAEYYDVIFQSKPNIPLTTAIHNGMRIGKTIRIRGMCTAQDGFAINFNDNRNNIYFHFNARPAQRTVVRNSYFGSWGNEETAISKEFPFYPFLYFYASFVCMEDKFAVYVNDEHFIDFAHRGNPNNISVLQIKGSVNVLDTECLEPMGEDAMTEVDSGLENGDLFVLNGLMTERGKTFAVNFLNGFTENDDIALHFNPRKSTGEVVLNSRYGGAWQSEEKVALPGVFWSNRPLQVKVETKRNKFKIYVNGVDLAKYKIRGNVEDVHAVQVKGDVFLLETLLLKRLMKPVWERLTGGIRPGTWVTLQGTPKKNWQQFVVNFALDDTLDGDIAFHFNVRRGARQVVRNHRQSGAWGREETVTPFFAFDSEATFEIVFFVKEEKFLIYFNGKLFFEFVHRVPVERITHIYMDGDCNFYEPEVVI
- glycan array binding signal (z-score) [1]: -0.31
- glycan array binding signal (z-score) [2]: -0.341
- glycan array binding signal (z-score) [3]: 1.62
- glycan array binding signal (z-score) [4]: 4.44
- glycan array binding signal (z-score) [5]: -0.32
- glycan array binding signal (z-score) [6]: -0.332
- glycan array binding signal (z-score) [7]: -0.326
- glycan array binding signal (z-score) [8]: 0.888
- glycan array binding signal (z-score) [9]: 1.73
- glycan array binding signal (z-score) [10]: -0.154
- glycan array binding signal (z-score) [11]: 1.09
- glycan array binding signal (z-score) [12]: 0.24
- glycan array binding signal (z-score) [13]: 0.977
- glycan array binding signal (z-score) [14]: 2.27
- glycan array binding signal (z-score) [15]: 0.052
- glycan array binding signal (z-score) [16]: 2.9
- glycan array binding signal (z-score) [17]: -0.335
- glycan array binding signal (z-score) [18]: -0.331
- glycan array binding signal (z-score) [19]: -0.332
- glycan array binding signal (z-score) [20]: -0.336
- glycan array binding signal (z-score) [21]: -0.314
- glycan array binding signal (z-score) [22]: -0.306
- glycan array binding signal (z-score) [23]: 0.436
- glycan array binding signal (z-score) [24]: 2.03
- glycan array binding signal (z-score) [25]: -0.308
- glycan array binding signal (z-score) [26]: -0.337
- glycan array binding signal (z-score) [27]: 1.31
- glycan array binding signal (z-score) [28]: -0.289
- glycan array binding signal (z-score) [29]: 0.526
- glycan array binding signal (z-score) [30]: -0.168

Reference: the supplement of paper PMC8728848
